Data reported in the RNAGym collection of RNA variant scans (doi:10.1073/pnas.2313332121).
Variants at the background level are over-represented here.

B1: TPR 5TU (parent)
chain: GGAUCUUCUCGAUCUAACAAAAAAGACAAAUCUGCCACAAAGCUUGAGAGCAUCUUCGGAUGCAGAGGCGGCAGCCUUCGGUGGCGCGAUAGCGCCAACGUUCUCAACUAUGACACGCAAAACGCGUGCUCCGUUGAAUGGAGUUUAUCAUG

Variants of: B1
Experiment: polymerase ribozyme fitness, log enrichment relative to wild type (log ratio); higher = more active; in vitro selection for triplet polymerase activity
How it was run: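 To select mutant libraries of each subunit of a heterodimeric triplet polymerase ribozyme, built by PCR and transcribed, each was annealed with a biotinylated primer, partner subunit and triplets, then incubated frozen at −7 °C. Extended constructs were gel-excised, captured on streptavidin beads and amplified by RT-PCR, in one round carried out in triplicate. Illumina sequencing of input and output libraries kept genotypes with ≥10 input reads and ≥1 read per output. Fitness is the base-2 logarithm of genotype enrichment relative to wild-type enrichment, from inverse-variance-weighted replicate averages.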

Variant	polymerase ribozyme fitness (log ratio)
A23G U61G A97U A150C U151C	≤ -4.2
A23G U82G G83C C95U G100A	≤ -4.2
A23U A24C A41C A49G C87A C108G	≤ -4.2
A23U A24U U53A G86U G92C G94C C131A U135G	≤ -4.2
A23U A26C G42A A91U G152A	≤ -4.2
A23U A26U U53A G74C G83A	≤ -4.2
A23U A28C A39G A49C U53A G124C	≤ -4.2
A23U A28C A60C U61G G67A C87G C96A	≤ -4.2
A23U A28C C54A C75G A91G A110C	≤ -4.2
A23U A28C U44A U78G C87G G141U	≤ -4.2
A23U A28G A29U C69A C125A U146G	≤ -4.2
A23U A28U A40G C54U C57U U77A C93A G143A	≤ -4.2
A23U A28U C38U U45A A64C C85G	≤ -4.2
A23U A28U U44A C85G G117A	≤ -4.2
A23U A29C C85G A110G G112U	≤ -4.2
A23U A29G	≤ -4.2
A23U A29G G42A A98U U102A U145G	≤ -4.2
A23U A29G G84U	≤ -4.2
A23U A29U	-3.88
A23U A29U C35U G42C G48A G71U C93U G141U G143C	≤ -4.2
A23U A29U C38A A52G U77G G92A A107U G143C	≤ -4.2

Variant	polymerase ribozyme fitness (log ratio)
A23U A29U C85A A115G G143C	≤ -4.2
A23U A30C U55A C85G A98U G126U G136A	≤ -4.2
A23U A37C A41C C105U	≤ -4.2
A23U A37G C69U U139A	≤ -4.2
A23U A37G C95U	≤ -4.2
A23U A37U A40G U55A C57A G83A C118G G133A U151G	≤ -4.2
A23U A39U G50U C51U C54G C57U A64G	≤ -4.2
A23U A40C G58U A60C C76A G83A C105U G141C U146G	≤ -4.2
A23U A40G C57A A120G U135C	≤ -4.2
A23U A40U G83A C123U A147U	≤ -4.2
A23U A40U U90A C118A U139G	≤ -4.2
A23U A41C C43U G67A C76A C96G U146A	≤ -4.2
A23U A41C C103A	≤ -4.2
A23U A47C U55G G86U U90C	≤ -4.2
A23U A47G U90A C95U A115C G140A C149G	≤ -4.2
A23U A47U C57A G83A C96A	≤ -4.2
A23U A47U G81C C99G A107U G140A	≤ -4.2
A23U A49C G50U C95U	≤ -4.2
A23U A49C U55A A91G U139A U144C	≤ -4.2
A23U A52G C76A G84U C116U A122G G141A	≤ -4.2
A23U A52G C76U C79A C103A	≤ -4.2

Variant	polymerase ribozyme fitness (log ratio)
A23U A60G G81A G83U	≤ -4.2
A23U A73G U77C G83C G112C	≤ -4.2
A23U A113C U134G	≤ -4.2
A23U C32U C43U C57A A60C G67A G92C C105A A113C	≤ -4.2
A23U C35G A66C C76A G88C	≤ -4.2
A23U C36U U44A C85A	≤ -4.2
A23U C36U U53C U90G C114G	≤ -4.2
A23U C38U G48U C87U	≤ -4.2
A23U C43A U56A C103A G128A	≤ -4.2
A23U C43U G59A G88A G94U U134A	≤ -4.2
A23U C51G A60C G88U G94U	≤ -4.2
A23U C51G A60G C95U C118G	≤ -4.2
A23U C51U C95G	≤ -4.2
A23U C51U G58C	≤ -4.2
A23U C54A C79U C85G C95U G117U C123A	≤ -4.2
A23U C54A U56C U139A A142C	≤ -4.2
A23U C54G U61C G84U C87U G88A A119U	≤ -4.2
A23U C54U G88U	≤ -4.2
A23U C57A C76A A91G C99G U127G U135G	≤ -4.2
A23U C57A G92C C149G	≤ -4.2
A23U C75A U111C U148C	≤ -4.2

Variant	polymerase ribozyme fitness (log ratio)
A23U C75G C93U	≤ -4.2
A23U C76A C118G A142C C149U	≤ -4.2
A23U C76U G94C C125U	≤ -4.2
A23U C85A	≤ -4.2
A23U C85G A91C C95G C105U A150G	≤ -4.2
A23U C85U C93U U134G	≤ -4.2
A23U C85U C116G A120G	≤ -4.2
A23U C87A	≤ -4.2
A23U C87U A120G	≤ -4.2
A23U C96U U127C U144G A150G	≤ -4.2
A23U C99G C103U C116G C123U A138G A142U	≤ -4.2
A23U G25A A37U G46A A47C C95G A138G	≤ -4.2
A23U G25C U77A G80A C85U	≤ -4.2
A23U G34C U145C U146C	≤ -4.2
A23U G42A C85A C95U A147U	≤ -4.2
A23U G42C G88C C105G C116G	≤ -4.2
A23U G46A C51U C103A	≤ -4.2
A23U G46U G67U C96G U146G U151A	≤ -4.2
A23U G48C C69A C87A	≤ -4.2
A23U G50A C85G G152U	≤ -4.2
A23U G50A C95U A137G	≤ -4.2
